Hit rate of the full screen: of about 310,000 compounds, about 2,200 (0.71%) showed an effect of 50% or more. Effects have a minus sign here. This is one part of the list.

Chain of human ether-à-go-go-related gene (hERG) potassium channel (Q12809 whole entry, looked up): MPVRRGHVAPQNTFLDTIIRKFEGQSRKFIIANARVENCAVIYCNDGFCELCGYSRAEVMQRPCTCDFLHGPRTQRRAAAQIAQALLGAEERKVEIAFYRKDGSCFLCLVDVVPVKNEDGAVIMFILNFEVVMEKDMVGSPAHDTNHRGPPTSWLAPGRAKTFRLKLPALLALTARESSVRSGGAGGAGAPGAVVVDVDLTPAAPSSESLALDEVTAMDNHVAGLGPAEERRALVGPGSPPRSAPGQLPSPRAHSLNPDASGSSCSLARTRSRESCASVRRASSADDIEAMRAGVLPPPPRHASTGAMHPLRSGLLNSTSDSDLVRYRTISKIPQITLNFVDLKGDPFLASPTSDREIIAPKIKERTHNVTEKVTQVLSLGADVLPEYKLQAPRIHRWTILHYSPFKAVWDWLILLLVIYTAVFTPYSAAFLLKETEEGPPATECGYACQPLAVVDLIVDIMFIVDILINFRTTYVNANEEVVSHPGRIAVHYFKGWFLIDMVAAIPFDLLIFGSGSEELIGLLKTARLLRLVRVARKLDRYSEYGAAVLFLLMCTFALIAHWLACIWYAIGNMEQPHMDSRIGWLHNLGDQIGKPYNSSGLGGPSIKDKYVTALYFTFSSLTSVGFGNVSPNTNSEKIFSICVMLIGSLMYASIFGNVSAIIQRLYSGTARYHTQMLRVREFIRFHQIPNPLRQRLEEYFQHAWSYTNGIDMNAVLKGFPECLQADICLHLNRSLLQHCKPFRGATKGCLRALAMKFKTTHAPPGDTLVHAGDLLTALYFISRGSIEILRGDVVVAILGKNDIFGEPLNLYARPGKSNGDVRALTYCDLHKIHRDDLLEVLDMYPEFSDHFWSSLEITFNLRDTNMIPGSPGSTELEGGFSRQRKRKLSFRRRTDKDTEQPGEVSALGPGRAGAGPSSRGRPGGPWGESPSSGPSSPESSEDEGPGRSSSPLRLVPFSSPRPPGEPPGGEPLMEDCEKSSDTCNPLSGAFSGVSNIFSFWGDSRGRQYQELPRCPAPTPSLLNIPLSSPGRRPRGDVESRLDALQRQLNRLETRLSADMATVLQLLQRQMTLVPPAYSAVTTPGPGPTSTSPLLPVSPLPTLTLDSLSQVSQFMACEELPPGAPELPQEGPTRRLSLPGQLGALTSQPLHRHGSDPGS

The test addresses human ether-à-go-go-related gene (hERG) potassium channel (human, UniProt Q12809). As to the kind of experiment: primary screen, population patch clamp on CHO cells stably expressing hERG.
On to `Cc1ccc2[nH]c(=O)c(CN(CCO)C(=O)NCc3ccccc3)cc2c1`, for which the “hERG current change (%, negative = inhibition) at 1uM” value is reported as 9.56%.
Consider `Cn1c(=O)c2c(ncn2Cc2nnc(N)s2)n(C)c1=O`, for which the “hERG current change (%, negative = inhibition) at 1uM” value was found to be 13.7%.
On to `COc1ccc(S(=O)(=O)N2CCN(C(=O)c3cc(C)on3)CC2)cc1`, for which the “hERG current change (%, negative = inhibition) at 1uM” value is given as 5.01%.
Then `C=CCS(=O)(=O)N1CCCC(N2CCN(c3ccccc3OC)CC2)C1` (centres unmarked), with 16.1%; and `COc1ccc(NC(=S)N(CCN2CCOCC2)Cc2cc3cc4c(cc3[nH]c2=O)OCCO4)cc1`, with -0.555%.
Then `COc1cc(OC)cc(C(=O)NCCC(c2ccccc2)c2ccccc2)c1`, with -4.61%; and `S=C(Nc1ccccc1)c1nc2ccccc2s1`, with 17.1%; and `COc1ccc(/C=C/C(=O)NC(=S)NNC(=O)c2cccnc2)cc1`, with 8.82%.
The figure for `Cc1ccc(S(=O)(=O)N2CCN(C(=O)COC(=O)c3c(C)noc3C)CC2)c(C)c1` is 4.02%; for `COC(C(=O)Nc1cccc([N+](=O)[O-])c1)c1ccccc1` (centres unmarked) it is 5.48%; for `CCCCCc1nnc(NC(=O)c2ccc(=O)n(C)n2)s1` it is 4.3%.
For `COc1ccc(C)cc1NC(=O)C(C)N(c1ccc(C)cc1)S(C)(=O)=O` (centres unmarked), the “hERG current change (%, negative = inhibition) at 1uM” value is listed as -0.341%.
The figure for `Cc1ccc(NC(=O)C2CCN(S(=O)(=O)c3c(C)nn(C)c3C)CC2)c(Cl)c1` is 0.0548%; for `Cc1cccc(-n2c(O)c(C=NCCCN3CCOCC3)c(=O)[nH]c2=O)c1C` it is 12.4%; for `Cc1c(C(=O)Oc2cccc3cccnc23)oc2ccccc12` it is 12%.
Consider `CC(=O)Nc1ccc(S(=O)(=O)NC2CC(=O)N(c3cccc(F)c3)C2)cc1` (centres unmarked), for which the “hERG current change (%, negative = inhibition) at 1uM” value came out at 6.46%.
The figure for `CCC(=O)c1c[nH]c(C(=O)N2CCOCC2)c1` is 13.6%.
Then `COc1ccccc1N1CCN(C(=O)C2CCN(C(=O)c3ccccc3Cl)CC2)CC1`, with -0.259%; and `Nc1cc(=O)[nH]c(=O)n1-c1cccc(F)c1`, with 13.2%; and `Cc1c(CC(=O)O)c(=O)oc2c(C)c(OCc3ccccc3)ccc12`, with 8.82%.
In the case of `CCn1c2ccccc2c2cc(/C=N/NC(=O)c3ccccc3)ccc21`, the “hERG current change (%, negative = inhibition) at 1uM” value amounted to 7.78%.
The figure for `COc1cc(C(=O)N2CCN(C(=O)c3cc(-c4ccccc4)n[nH]3)CC2)cc(OC)c1OC` is -21.9%; for `c1ccc(CSCc2nc3ccccc3[nH]2)cc1` it is 4.03%.
Then `Cc1c(-c2cccs2)[n+](=O)c2c(n1[O-])CCCCC2`, with 12.3%.
Then `COc1cc2c(cc1NC(=O)C(C)N1CCN(S(=O)(=O)c3ccccc3[N+](=O)[O-])CC1)oc1ccccc12` (centres unmarked), with -12.4%.
For the molecule `CCc1c(C)nc(N)nc1N1N=C1SC`, the “hERG current change (%, negative = inhibition) at 1uM” value came to 8.55%.
Consider `CC(=O)NCCCNS(=O)(=O)c1ccc(C)cc1`, for which the “hERG current change (%, negative = inhibition) at 1uM” value is on record as 10.3%.
For the molecule `O=C(CN1CCCN(S(=O)(=O)c2ccc(F)cc2)CC1)Nc1ccccc1Br`, the “hERG current change (%, negative = inhibition) at 1uM” value was -3.13%.
Then `Cc1ccc(NC(=S)N2CCN(c3nccc(C(F)(F)F)n3)CC2)c(C)c1`, with 12.5%; and `COc1ccc(CNC(=O)c2ccc(Br)cc2)cc1`, with 3.36%.
The figure for `CC(OC(=O)c1ccc([N+](=O)[O-])s1)C(=O)Nc1ncc(Cl)cc1Cl` (centres unmarked) is -4.79%; for `COc1ccc(NC(=O)c2ccc3c(c2)NC(=O)CO3)cc1OC` it is 12.1%.
Regarding `COCCNC(=O)C(c1ccc(O)cc1)N(Cc1ccccc1)C(=O)CCC(=O)Nc1ccccn1` (centres unmarked), the “hERG current change (%, negative = inhibition) at 1uM” value was -0.25%.
Then `NC(=O)COC(=O)/C=C/c1ccc2ccccc2n1`, with 13.5%; and `CCN(CC)CCN=Cc1c(O)n(C2CCCCCC2)c(=O)[nH]c1=O`, with 2.8%; and `O=C(Cc1ccccc1)Oc1ccc(N2C(=O)C3CCCCC3C2=O)cc1` (centres unmarked), with -4.06%.
The figure for `CCCc1nc2cc(Cl)c([N+](=O)[O-])cc2o1` is 9.77%; for `O=C(c1nn(-c2ccccc2)c(=O)c2ccccc12)N1CCN(c2ccccn2)CC1` it is -0.048%.
`CCOc1ccc(C(=O)NC2CC(=O)N(c3ccc4c(c3)OCCO4)C2)cc1` (centres unmarked): the “hERG current change (%, negative = inhibition) at 1uM” value turned out to be 3.76%.
Then `NC(=O)c1ccsc1NC(=O)COC(=O)c1ccccc1NCc1ccco1`, with 2.49%; and `CCN(CC)CCC(=O)Nc1ccc2c(c1)N(C(=O)CN(CC)CC)c1ccccc1CC2.Cl.O`, with 7.98%.
The figure for `Cc1ccc(Cl)c(OCC(=O)Nc2ccc3c(c2)OCCO3)c1` is 11.8%; for `Clc1ccc(/C=N/Nc2ncnc3ccccc23)cc1Cl` it is 11.7%; for `CCCCNC(=O)/C=C/c1ccc(S(=O)(=O)Nc2ccc(OC)cc2)cc1` it is 9.16%.
For the molecule `CC(=O)OCCN(CCCn1c(-c2ccncc2)nc2ccccc21)c1nc(CN2CCCCC2)cs1`, the “hERG current change (%, negative = inhibition) at 1uM” value is listed as -37.8%.
The figure for `CSc1ccccc1NC(=O)c1cc(C(C)C)on1` is 14%; for `COc1ccc2[nH]c(C)c(CCNC(=S)Nc3cccc(C)c3C)c2c1` it is 18.2%; for `O=C(CNc1ccc(C(F)(F)F)cc1[N+](=O)[O-])OCC(=O)c1ccccc1` it is -4.69%.
The figure for `CN1CCN(NC(=O)c2ccc(S(=O)(=O)N3CC4(C)CC3CC(C)(C)C4)cc2)CC1.Cl` (centres unmarked) is 7.2%.
The figure for `CCn1cc(Br)c(C(=O)Nc2ccc(Cl)cc2Cl)n1` is 13.9%; for `Cc1cc(S(=O)(=O)N2CCN(c3ccccc3F)CC2)ccc1-n1cnnn1` it is 7.6%; for `Cc1[nH]c(=O)c(C#N)c(C)c1Cl` it is 4.51%.
On to `COc1cc(/C=N/NC(=O)c2ccccc2Cl)ccc1Oc1ccc([N+](=O)[O-])cn1`, for which the “hERG current change (%, negative = inhibition) at 1uM” value is on record as -5.81%.
Consider `CCN(C(=O)c1ccc(Cl)c([N+](=O)[O-])c1)c1ccccc1`, for which the “hERG current change (%, negative = inhibition) at 1uM” value is given as -6.86%.
Regarding `O=C(Nc1nnc(CC2=CCCCC2)s1)c1cccs1`, the “hERG current change (%, negative = inhibition) at 1uM” value is 21.5%.
The figure for `O=C(Cc1ccc(Cl)cc1)NCCCn1ccnc1` is 9.11%.

(Values after paper PMC4336329 (PLoS ONE, 2015).)
